Experimental data: publication PMC3201922
No constants are given. Whether binding was seen depends on the method and setting. For some assays here: Binding seen in cells or lysates may run through a third protein. Some results given as binding are weak or reduced against the parent protein; the word gives no strength. For some assays here: Where a sequence is shown, tags or fusion partners need not be part of it.

Sequences of proteins named here, by UniProt entry; tags and fusion partners are left off. A change or cut given only in a name is not applied to a line headed by its entry. Residues count along the entry.
UniProt Q92466: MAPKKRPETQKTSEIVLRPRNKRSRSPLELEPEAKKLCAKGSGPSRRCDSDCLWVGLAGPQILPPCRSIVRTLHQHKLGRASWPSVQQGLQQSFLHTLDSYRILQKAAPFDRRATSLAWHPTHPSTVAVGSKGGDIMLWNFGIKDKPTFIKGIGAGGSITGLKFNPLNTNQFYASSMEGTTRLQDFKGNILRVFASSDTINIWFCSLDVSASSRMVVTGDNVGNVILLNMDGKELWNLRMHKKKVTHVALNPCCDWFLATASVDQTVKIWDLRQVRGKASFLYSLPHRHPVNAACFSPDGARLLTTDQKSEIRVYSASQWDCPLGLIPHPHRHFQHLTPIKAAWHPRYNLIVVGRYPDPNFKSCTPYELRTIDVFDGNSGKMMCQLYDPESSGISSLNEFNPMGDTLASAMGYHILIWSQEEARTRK
DDB2_(79–427)-FLAG: residues 79-427 of Q92466
UniProt Q16531: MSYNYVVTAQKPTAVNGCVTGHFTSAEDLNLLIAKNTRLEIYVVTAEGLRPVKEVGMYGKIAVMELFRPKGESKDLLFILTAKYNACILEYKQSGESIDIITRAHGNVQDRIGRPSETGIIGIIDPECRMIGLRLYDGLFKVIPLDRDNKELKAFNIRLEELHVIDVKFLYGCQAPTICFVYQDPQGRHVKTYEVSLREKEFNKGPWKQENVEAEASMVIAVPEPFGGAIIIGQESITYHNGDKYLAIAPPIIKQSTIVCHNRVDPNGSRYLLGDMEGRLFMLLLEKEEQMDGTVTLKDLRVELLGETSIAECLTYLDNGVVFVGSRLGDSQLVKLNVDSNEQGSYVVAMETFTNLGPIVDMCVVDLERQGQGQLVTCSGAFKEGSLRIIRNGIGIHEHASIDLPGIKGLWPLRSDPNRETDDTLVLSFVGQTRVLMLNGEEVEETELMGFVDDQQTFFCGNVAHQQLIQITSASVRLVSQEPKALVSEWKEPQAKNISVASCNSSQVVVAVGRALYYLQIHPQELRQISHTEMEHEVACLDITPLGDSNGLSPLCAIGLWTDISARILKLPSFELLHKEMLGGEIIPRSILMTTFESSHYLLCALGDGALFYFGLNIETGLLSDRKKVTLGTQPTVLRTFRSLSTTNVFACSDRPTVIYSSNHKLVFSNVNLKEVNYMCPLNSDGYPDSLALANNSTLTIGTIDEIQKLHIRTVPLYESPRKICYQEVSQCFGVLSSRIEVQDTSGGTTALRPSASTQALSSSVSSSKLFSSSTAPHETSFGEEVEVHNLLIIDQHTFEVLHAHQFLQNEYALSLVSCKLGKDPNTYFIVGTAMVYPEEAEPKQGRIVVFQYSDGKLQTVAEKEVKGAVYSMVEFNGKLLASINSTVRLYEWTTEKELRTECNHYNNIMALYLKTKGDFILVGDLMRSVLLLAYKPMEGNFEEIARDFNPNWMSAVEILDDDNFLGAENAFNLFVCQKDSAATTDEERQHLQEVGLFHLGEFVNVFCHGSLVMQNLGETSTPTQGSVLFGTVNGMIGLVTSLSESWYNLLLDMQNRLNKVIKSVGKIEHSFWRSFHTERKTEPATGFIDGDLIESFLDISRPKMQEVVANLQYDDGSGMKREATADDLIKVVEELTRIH

Experiments:
[1] = biological target: DDB2_(79–427)-FLAG (human) (UniProt Q92466); test: co-IP; lysates of doubly transfected HEK293T cells probed with anti-FLAG affinity beads; immunoprecipitates analysed by Western blotting with anti-FLAG and anti-GFP antibodies
[2] = biological target: DDB2_(1–427)-FLAG (human) (UniProt Q92466); test: as above
[3] = biological target: T1, GST-XPC_(428–633) (human) (UniProt Q01831); test: pull-down; GST-XPC polypeptides (120 pmol) held on glutathione-Sepharose beads, incubated with UV-DDB (120 pmol) for 20 min at room temperature in 500 µl washing buffer (50 mM Tris-HCl pH 8.0, 1 mM EDTA, 1 mM dithiothreitol, 10% glycerol, 0.5% Nonidet P-40, 150 mM NaCl, bovine serum albumin); DDB2 detected with antibodies against His6; in some samples UV-DDB was pre-incubated with undamaged or damaged 15-mer DNA duplex; both purified
T1 sequence: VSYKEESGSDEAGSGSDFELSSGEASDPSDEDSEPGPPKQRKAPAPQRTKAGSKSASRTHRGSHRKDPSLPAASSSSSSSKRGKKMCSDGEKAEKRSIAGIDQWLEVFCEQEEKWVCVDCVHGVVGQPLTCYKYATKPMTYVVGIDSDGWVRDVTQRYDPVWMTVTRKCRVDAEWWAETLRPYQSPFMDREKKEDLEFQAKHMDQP

[4] = biological target: T2, GST-XPC_(607–766) (human) (UniProt Q01831); test: as above
T2 sequence: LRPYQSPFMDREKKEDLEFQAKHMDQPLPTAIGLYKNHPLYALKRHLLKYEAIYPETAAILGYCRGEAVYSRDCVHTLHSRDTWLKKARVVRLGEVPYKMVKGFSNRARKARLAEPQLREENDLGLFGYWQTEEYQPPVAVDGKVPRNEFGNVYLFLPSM

[5] = biological target: T3, GST-XPC_(679–832) (human) (UniProt Q01831); test: as above
T3 sequence: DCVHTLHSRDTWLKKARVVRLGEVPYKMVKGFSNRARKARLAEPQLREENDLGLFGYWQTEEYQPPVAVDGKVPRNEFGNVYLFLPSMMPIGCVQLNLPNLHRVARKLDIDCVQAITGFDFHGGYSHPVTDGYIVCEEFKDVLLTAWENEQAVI

[6] = biological target: T4, GST-XPC_(607–741) (human) (UniProt Q01831); test: as above
T4 sequence: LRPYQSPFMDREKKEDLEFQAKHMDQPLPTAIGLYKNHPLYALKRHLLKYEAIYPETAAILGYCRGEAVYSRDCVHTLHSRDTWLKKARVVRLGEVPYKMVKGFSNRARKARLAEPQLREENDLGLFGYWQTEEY

| binding [1] | binding [2] | Substance | binding [3] | binding [4] | binding [5] | binding [6] |
| --- | --- | --- | --- | --- | --- | --- |
| no binding | binds | DDB1 (from UniProt Q16531 1-1140) | – | – | – | – |
| – | – | UV-DDB-His6 (from UniProt Q16531 1-1140; Q92466 1-427) (complex) | binds | binds | no binding (tested: 120 pmol UV-DDB in 500 µl) | binds |
| binds | binds | XPC-GFP (from UniProt Q01831 1-940) | – | – | – | – |
